Reference: publication PMC4336329 (PLoS ONE, 2015)
About 2,200 (0.71%) of roughly 310,000 compounds showed an effect of 50% or more. Effects have a minus sign here. This is one part of the list.

The molecules below were run against human ether-à-go-go-related gene (hERG) potassium channel (human, UniProt Q12809) (assay: primary screen, population patch clamp on CHO cells stably expressing hERG).
Chain of human ether-à-go-go-related gene (hERG) potassium channel (Q12809 whole entry, looked up): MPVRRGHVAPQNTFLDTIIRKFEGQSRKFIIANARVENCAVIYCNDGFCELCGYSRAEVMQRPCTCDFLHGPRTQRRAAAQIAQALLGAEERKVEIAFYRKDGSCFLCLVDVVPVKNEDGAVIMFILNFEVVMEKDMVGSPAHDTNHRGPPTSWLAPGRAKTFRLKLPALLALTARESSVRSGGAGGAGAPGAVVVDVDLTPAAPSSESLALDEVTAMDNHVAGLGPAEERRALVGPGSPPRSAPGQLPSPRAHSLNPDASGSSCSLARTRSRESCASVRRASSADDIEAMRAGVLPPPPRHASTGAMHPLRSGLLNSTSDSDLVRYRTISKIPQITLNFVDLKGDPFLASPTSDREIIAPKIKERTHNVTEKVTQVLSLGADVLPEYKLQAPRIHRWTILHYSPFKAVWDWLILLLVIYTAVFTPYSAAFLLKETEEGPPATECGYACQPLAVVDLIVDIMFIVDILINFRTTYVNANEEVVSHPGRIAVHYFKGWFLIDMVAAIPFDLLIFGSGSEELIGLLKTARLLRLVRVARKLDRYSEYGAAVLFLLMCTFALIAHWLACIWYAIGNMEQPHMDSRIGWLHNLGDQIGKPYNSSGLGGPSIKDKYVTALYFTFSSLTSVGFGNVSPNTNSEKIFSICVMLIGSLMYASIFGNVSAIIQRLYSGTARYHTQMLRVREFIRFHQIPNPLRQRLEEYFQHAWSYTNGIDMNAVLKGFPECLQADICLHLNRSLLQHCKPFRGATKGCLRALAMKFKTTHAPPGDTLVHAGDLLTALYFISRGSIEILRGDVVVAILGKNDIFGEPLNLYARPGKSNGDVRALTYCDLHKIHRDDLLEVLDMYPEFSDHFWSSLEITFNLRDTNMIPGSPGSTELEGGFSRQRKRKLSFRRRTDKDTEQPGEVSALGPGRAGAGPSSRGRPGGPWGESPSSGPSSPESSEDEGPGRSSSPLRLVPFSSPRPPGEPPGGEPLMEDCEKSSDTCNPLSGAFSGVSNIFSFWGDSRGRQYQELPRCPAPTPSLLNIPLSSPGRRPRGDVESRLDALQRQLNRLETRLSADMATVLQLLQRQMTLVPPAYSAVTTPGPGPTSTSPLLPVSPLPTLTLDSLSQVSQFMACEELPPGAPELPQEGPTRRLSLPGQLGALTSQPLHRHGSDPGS

Row | Compound | hERG current change (%, negative = inhibition) at 1uM
1 | CC(=O)Nc1cccc(NC(=O)Nc2ccc(C(C)=O)cc2)c1 | 12.1%
2 | Cc1cc2ncn(S(=O)(=O)c3ccc(F)cc3)c2cc1C | 11.3%
3 | CCC(C)C(=O)OCC1(c2ccc(C)cc2OC(=O)C(C)C)CO1 (stereo not shown) | 5.32%
4 | CCN(CC(=O)NC(C)C)C(=O)[C@H](C)NC(=O)c1ccc(Br)cc1 | -2.68%
5 | CCOC(=O)CC1C(=O)NCCN1S(=O)(=O)c1ccccc1Cl (stereo not shown) | -4.56%
6 | COC(=O)c1c(C(=O)OC)c(-c2ccc(C)cc2)n2c1CS(=O)C2 (stereo not shown) | 0.467%
7 | Cc1ccc2nc(Cl)c(-c3ccccc3)cc2c1 | 9.36%
8 | COC(=O)C1C(=O)C2=C(CC1C)NC(C)=C(C(=O)OC1CCCCC1)C2c1ccc(N(C)C)cc1 (stereo not shown) | 12.1%
9 | COc1cc(C(=S)N2CCN(c3cccc(Cl)c3)CC2)ccc1O | 13.1%
10 | COc1cc(OC)cc(C(=O)NCC(=O)OCC(=O)Nc2cc(S(C)(=O)=O)ccc2Cl)c1 | 12.5%
11 | Cc1ccc(Cn2c(=N)c(S(=O)(=O)c3ccc(C)cc3)cc3c(=O)n4ccccc4nc32)cc1 | 6.66%
12 | CCOC(=O)c1cccc(NC(=O)Cn2nc(C)n3cccc3c2=O)c1 | 4.49%
13 | O=C(CN1C(=O)C2C3CCC(C3)C2C1=O)Oc1ccc2ccccc2c1 (stereo not shown) | 24%
14 | CCOc1ccc(CCNC(=O)c2cccc(-n3cnnn3)c2)cc1OCC | 4.43%
15 | CCN(CC)S(=O)(=O)c1ccc(/C=C/C(=O)Nc2ccccc2N2CCOCC2)cc1 | 9.27%
16 | N/C(Cc1cccc2ccccc12)=N\OC(=O)Cc1cccs1 | 13.7%
17 | Cc1cc(Nc2cccc([N+](=O)[O-])c2)n2c(nc3ccccc32)c1C#N | 12.2%
18 | Cc1ccccc1COc1ccc(/C=C(\C#N)C(N)=O)cc1 | 17.9%
19 | CCCSc1ccc([C@H]2N[C@@](C)(C(=O)OC)[C@H]3C(=O)N(C)C(=O)[C@@H]23)cc1.O=C(O)C(F)(F)F | 11.6%
20 | CC(C)C(NC(=O)c1ccc2c(c1)OCO2)C(=O)N/N=C\c1ccco1 (stereo not shown) | 3.58%
21 | Cn1cc(C2N3CC4(C)CN2CC(C)(C3)C4=O)c2ccccc21 (stereo not shown) | 15.6%
22 | Cc1ccccc1-c1noc(C2CCCCC2)n1 | 11.9%

Row | Compound | hERG current change (%, negative = inhibition) at 1uM
23 | COCCn1c(C)cc(C(=O)COC(=O)c2ccc([N+](=O)[O-])o2)c1C | 7.03%
24 | COc1ccc(NC(=O)/C(C#N)=C\c2cc(C)n(-c3ccc(Oc4ccc([N+](=O)[O-])cn4)cc3)c2C)cc1 | 15.8%
25 | O=C(Nc1ccc(F)cc1)C(Cc1ccccc1)n1cccc1 (stereo not shown) | 7.17%
26 | C#CCN(C(=O)c1ccc(OC2CCN(C(=O)CCOC)CC2)cc1)C1CCCCC1 | 13.1%
27 | O=S(=O)(NCc1ccccc1)c1ccc(S(=O)(=O)NCC2CCCO2)cc1 (stereo not shown) | 12.1%
28 | CCCCNC(=O)Oc1cc(CCl)on1 | 18%
29 | Cc1cc(C)cc(C(=O)OCC(=O)NCc2cccs2)c1 | 11.8%
30 | O=C1CCN(Cc2ccccc2)CCN1CCOc1ccccc1 | 5.74%
31 | COc1cc(OC)c(C(=O)NCc2ccc3c(c2)OCO3)cc1OC | 4.98%
32 | CC1C(=O)C(C)C(c2ccc([N+](=O)[O-])cc2)NC1c1ccc([N+](=O)[O-])cc1 (stereo not shown) | -4.32%
33 | CCn1nc(NS(=O)(=O)c2ccccc2)c2cc3ccc(C)cc3nc21 | -1.21%
34 | Cc1ccc(C(=O)NC(NCc2ccccc2)C(Cl)(Cl)Cl)cc1 (stereo not shown) | -1.59%
35 | Cc1cccc(NC(=O)CN2NS(=O)(=O)c3ccccc3C2=O)c1 | 2.98%
36 | CCOC(=O)CNc1nc(OCC#N)nc(N2CCOCC2)n1 | -0.975%
37 | O=C(Cn1cnc2ccccc2c1=O)c1ccc2c(c1)OCCO2 | 6.85%
38 | CCc1ccc(CNC(=O)C2CCN(S(=O)(=O)N3CCC(C)CC3)CC2)cc1 | 14.8%
39 | CS(=O)(=O)N1N=C(c2cccs2)CC1c1ccccc1O (stereo not shown) | 14.8%
40 | O=C(Nc1ccc(Br)cc1F)c1ccncc1 | 1.5%
41 | CN1CCCN(C2C3CC4CC(C3)CC2C4)CC1 (stereo not shown) | 13.5%
42 | N#CCCC12CCCCC1=Nc1ccccc12 (stereo not shown) | 9.57%
43 | CCCCOc1ccc(C(=O)N/C(=C/c2cccc([N+](=O)[O-])c2)C(=O)O)cc1 | 12.7%
44 | CCOc1ccc(N2CC(C(=O)NCCc3ccccc3)CC2=O)cc1 (stereo not shown) | 13.9%

Row | Compound | hERG current change (%, negative = inhibition) at 1uM
45 | COc1ccc(-n2nc(C(=O)NCC(=O)N3CCN(c4cccc(Cl)c4)CC3)c3ccccc3c2=O)c(OC)c1 | 10.3%
46 | COc1cc(C(F)(F)F)c(C(=O)N(C)Cc2ccc(Cl)c(Cl)c2)cn1 | 8.59%
47 | CCCCC1=NN(C(=O)c2cccnc2)C(O)(C(F)(F)F)C1 (stereo not shown) | 16.3%
48 | CC(C)Cn1c(N)c(C(=O)CSc2nc3ncc(Cl)cc3[nH]2)c(=O)n(C)c1=O | 10.4%
49 | CC(C)Oc1ccc(Cc2cnc(=S)[nH]c2N)cc1 | 10.2%
50 | COc1ccc(-c2n[nH]c(=S)n2-c2ccc(C)cc2)cc1 | 4.56%
51 | CCNc1nc(NC(C)C)nc(Oc2ccc(OCCOc3ccc(C)cc3)nn2)n1 | 0.311%
52 | CC1=[N+]([O-])C(C)(C)N(O)C1(C)C | 15.2%
53 | COc1ccccc1NS(=O)(=O)c1cccc(NC(=O)Nc2ccccc2)c1 | 11.1%
54 | CC1CCC(C(C)C)C(=O)/C1=C/c1ccc(N)cc1 (stereo not shown) | 10.5%
55 | CCCC1CCC(c2ccc(C(=O)NN)cc2)CC1 (stereo not shown) | 10.6%
56 | Cc1[nH]nc2c1C1(C(=O)N(Cc3ccc(Cl)cc3)c3ccccc31)C(C#N)=C(N)O2 (stereo not shown) | 10.5%
57 | O=C(Nc1ccc(N=Nc2ccccc2)c(NC(=O)C2CCCO2)c1)C1CCCO1 (stereo not shown) | 9.09%
58 | CCS(=O)(=O)Nc1cccc(C(=O)O)c1 | 12.7%
59 | COc1ccc(/C=C/C(=O)Nc2cc(C(F)(F)F)ccc2Cl)cc1OC | 15.1%
60 | O=C(O)C1CCCN1C(=O)c1cccs1 (stereo not shown) | 6.74%
61 | Cc1ccc(-n2c(O)c(C=NCC3CCCO3)c(=O)[nH]c2=O)c(C)c1 (stereo not shown) | 12.8%
62 | CCc1ccc(C2=NNC(=Nc3cccc(S(=O)(=O)N(C)C)c3)SC2)cc1 | 6.95%
63 | O=C(CSc1nc2c(c(=O)n1-c1ccc(Cl)cc1)SCC2)NCC1CCCO1 (stereo not shown) | 5.79%
64 | CN(Cc1cccc(Cl)c1)C(=O)C1CSC2(C)CCC(=O)N12 (stereo not shown) | -0.379%
65 | COc1ccccc1-c1cc(C(F)(F)F)nc(NCc2cccs2)n1 | 7.85%
66 | CCOc1ccc(CCNC(=O)c2cc(C)nc3ccccc23)cc1OCC | -10.6%

Row | Compound | hERG current change (%, negative = inhibition) at 1uM
67 | N#Cc1cnn2c(-c3cccc([N+](=O)[O-])c3)ccnc12 | -3.5%
68 | Cc1cc(NC(=O)c2ccc3c(c2)C(=O)N(CCC(C)C)C3=O)no1 | 5.53%
69 | COc1ccc(CCNS(=O)(=O)c2cccc3cccnc23)cc1OC | 8.59%
70 | Nc1c2nc(-c3ccccc3)[nH]c(=O)c2nc(=O)n1-c1ccccc1 | 13.1%
71 | CCCc1nnc(NC(=O)Nc2ccc(OC)cc2)s1 | 24.9%
72 | Cc1c(NC(=O)C2CC(c3ccc(F)cc3)=NO2)c(=O)n(-c2ccccc2)n1C (stereo not shown) | 7%
73 | CN1/C(=C\C(=O)CSc2nnc(N)s2)C(C)(C)c2ccccc21 | 1.34%
74 | O=C(c1ccc(S(=O)(=O)N2CCOCC2)cc1)N(c1ccccc1)C1C=CS(=O)(=O)C1 (stereo not shown) | 6.83%
75 | CCc1nnc(NC(=O)c2ccc3nc(CC)c(CC)nc3c2)s1 | 20%
76 | CCC1S/C(=C(\C#N)C(N)=O)N(c2ccc(F)cc2)C1=O (stereo not shown) | 14%
77 | NS(=O)(=O)c1ccc(NC(=O)CSc2nnc(COc3ccccc3Cl)n2C2CC2)cc1 | 5.16%
78 | CC(CC#CCN1CCOCC1)OCCC#N (stereo not shown) | 6.3%
79 | O=C(NC1CCC(O)CC1)c1ccc(NS(=O)(=O)c2cccc([N+](=O)[O-])c2)cc1 (stereo not shown) | 12.1%
80 | COc1ccc(-c2coc3cc4oc(=O)cc(-c5ccccc5)c4cc23)cc1F | 3.73%
81 | COc1ccc(C(=O)N2CC3(C)CC2CC(C)(C)C3)cc1OC (stereo not shown) | -8.4%
82 | CCCn1c(Cc2ccccc2)n[nH]c1=S | 18%
83 | CC(=O)c1ccc(NC(=O)C(C)OC(=O)c2ccc3c(c2)nc(C)n3-c2ccccc2)cc1 (stereo not shown) | -2.28%
84 | Cc1ccc(-n2c(-c3ccc(Cl)cc3)n[nH]c2=S)c(C)c1 | 9.08%
85 | Cc1nn(CC(O)COc2ccc3c(c2)CCC3)c(C)c1Br (stereo not shown) | 4.55%
86 | O=C(CSc1nc(-c2ccccc2)cs1)NCCN1C(=O)CSC1=O | 12.2%
87 | Cc1ccc(NC(=O)/C(=C\c2cccc(Br)c2)NC(=O)c2ccco2)cc1 | -5.37%
88 | CCCNC(=O)C(Cc1ccc(F)cc1)NC(=O)c1ccc(C#N)cc1 (stereo not shown) | -17.5%
